# Laboratory results reported in the supplement of paper PMC8728848.
# The list shows a part of the results.
# B1: rAAL-2 (Agrocybe aegerita) (protein)
# chain: MTSNVITQDLPIPVASRGFADIVGFGLDGVVIGRNAVNLQPFLAVKNFAQNAGGWLTTKHVRLIADTTGTGKGDIVGFGNAGVYVSVNNGKNTFADPPKMVIANFGYDAGGWRVEKHLRYLADIRKIGRADIIGFGEKGVLVSRNNGGLNFGPATLVLKDFGYDAGGWRLDRHLRFLADVTGNGHLDIVGFGDKHVFISRNNGDGTFAPAKSVIDNFCIDAGGWKIGDHPRFVADLTGDGTADIIGCGKAGCWVALNNGGGVFGQVKLVINDFGTDKGWQAAKHPRFIADLTGNGRGDVVGFGNAGVYVALNNGDGTFQSAKLVLKDFGVQQGWTVSKHRRFVVDLTGDGCADIIGFGEKETLVSYNDGKGNFGPVKALTNDFSFSGGKWAPETTVCWMANLDSSRH
# What was measured:
# Test in all cases: glycan array binding signal (z-score within array); higher = stronger binding
# Details in all cases: glycan notation: IUPAC condensed, linker removed
# [1] = target: Neu5Ac(a2-3)Gal(b1-4)GlcNAc(b1-3)Gal(b1-4)GlcNAc(b1-3)Gal(b1-4)GlcNAc
# In short: (§1)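 Glycan array binding is given as a within-array Z-score, which can be read as non-binding when negative. The arrays, 3228 of them, came from the Consortium for Functional Glycomics database and were retained only where the protein sequence was available. Z-scores were averaged across arrays of the same protein sequence at different concentrations or buffers and across linkers.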
# [2] = target: Neu5Ac(a2-3)Gal(b1-4)GlcNAc(b1-3)Gal(b1-4)GlcNAc(b1-3)Gal(b1-4)GlcNAc(b1-2)Man(a1-3)[Neu5Ac(a2-3)Gal(b1-4)GlcNAc(b1-3)Gal(b1-4)GlcNAc(b1-3)Gal(b1-4)GlcNAc(b1-2)Man(a1-6)]GalNAc
# In short: as §1
# [3] = target: Neu5Ac(a2-3)Gal(b1-4)GlcNAc(b1-3)Gal(b1-4)GlcNAc(b1-3)GalNAc
# In short: as §1
# [4] = target: Neu5Ac(a2-3)Gal(b1-4)GlcNAc(b1-3)Gal(b1-4)GlcNAc(b1-3)[Neu5Ac(a2-3)Gal(b1-4)GlcNAc(b1-3)Gal(b1-4)GlcNAc(b1-6)]GalNAc
# In short: as §1
# [5] = target: Neu5Ac(a2-3)Gal(b1-4)GlcNAc(b1-3)Gal(b1-4)GlcNAc(b1-6)[Gal(b1-3)]GalNAc
# In short: as §1
# [6] = target: Neu5Ac(a2-3)Gal(b1-4)GlcNAc(b1-3)Gal(b1-4)[Fuc(a1-3)]GlcNAc
# In short: as §1
# [7] = target: Neu5Ac(a2-3)Gal(b1-4)GlcNAc(b1-3)GalNAc
# In short: as §1
# [8] = target: Neu5Ac(a2-3)Gal(b1-4)GlcNAc(b1-3)[Neu5Ac(a2-3)Gal(b1-4)GlcNAc(b1-6)]GalNAc
# In short: as §1
# [9] = target: Neu5Ac(a2-3)Gal(b1-4)GlcNAc(b1-6)GalNAc
# In short: as §1
# [10] = target: Neu5Ac(a2-3)Gal(b1-4)GlcNAc(b1-6)[Gal(b1-3)]GalNAc
# In short: as §1
# [11] = target: Neu5Ac(a2-3)Gal(b1-4)GlcNAc(b1-6)[Neu5Ac(a2-3)Gal(b1-3)]GalNAc
# In short: as §1
# [12] = target: Neu5Ac(a2-3)Gal(b1-4)GlcNAc6S
# In short: as §1
# [13] = target: Neu5Ac(a2-3)Gal(b1-4)[Fuc(a1-3)]GlcNAc
# In short: as §1
# [14] = target: Neu5Ac(a2-3)Gal(b1-4)[Fuc(a1-3)]GlcNAc(b1-2)Man
# In short: as §1
# [15] = target: Neu5Ac(a2-3)Gal(b1-4)[Fuc(a1-3)]GlcNAc(b1-3)Gal
# In short: as §1
# [16] = target: Neu5Ac(a2-3)Gal(b1-4)[Fuc(a1-3)]GlcNAc(b1-3)Gal(b1-4)GlcNAc
# In short: as §1
# [17] = target: Neu5Ac(a2-3)Gal(b1-4)[Fuc(a1-3)]GlcNAc(b1-3)Gal(b1-4)[Fuc(a1-3)]GlcNAc(b1-3)Gal(b1-4)[Fuc(a1-3)]GlcNAc
# In short: as §1
# [18] = target: Neu5Ac(a2-3)Gal(b1-4)[Fuc(a1-3)]GlcNAc(b1-3)GalNAc
# In short: as §1
# [19] = target: Neu5Ac(a2-3)Gal(b1-4)[Fuc(a1-3)]GlcNAc(b1-6)[Gal(b1-3)]GalNAc
# In short: as §1
# [20] = target: Neu5Ac(a2-3)Gal(b1-4)[Fuc(a1-3)]GlcNAc(b1-6)[Neu5Ac(a2-3)Gal(b1-3)]GalNAc
# In short: as §1
# [21] = target: Neu5Ac(a2-3)Gal(b1-4)[Fuc(a1-3)]GlcNAc6S
# In short: as §1
# [22] = target: Neu5Ac(a2-3)Gal6S(b1-4)GlcNAc
# In short: as §1
# [23] = target: Neu5Ac(a2-3)Gal6S(b1-4)[Fuc(a1-3)]GlcNAc
# In short: as §1
# [24] = target: Neu5Ac(a2-3)GalNAc
# In short: as §1
# [25] = target: Neu5Ac(a2-3)GalNAc(b1-4)GlcNAc
# In short: as §1
# [26] = target: Neu5Ac(a2-3)[GalNAc(b1-4)]Gal(b1-4)Glc
# In short: as §1
# [27] = target: Neu5Ac(a2-3)[GalNAc(b1-4)]Gal(b1-4)GlcNAc
# In short: as §1
# [28] = target: Neu5Ac(a2-3)[GalNAc(b1-4)]Gal(b1-4)GlcNAc(b1-3)GalNAc
# In short: as §1
# [29] = target: Neu5Ac(a2-3)[Neu5Ac(a2-6)]GalNAc
# In short: as §1
# [30] = target: Neu5Ac(a2-6)Gal
# In short: as §1
# [31] = target: Neu5Ac(a2-6)Gal(b1-3)GlcNAc(b1-3)[Gal(b1-4)GlcNAc(b1-6)]Gal(b1-4)Glc
# In short: as §1
# [32] = target: Neu5Ac(a2-6)Gal(b1-4)Glc
# In short: as §1
# [33] = target: Neu5Ac(a2-6)Gal(b1-4)GlcNAc
# In short: as §1
# [34] = target: Neu5Ac(a2-6)Gal(b1-4)GlcNAc(b1-2)Man
# In short: as §1
# [35] = target: Neu5Ac(a2-6)Gal(b1-4)GlcNAc(b1-2)Man(a1-3)Man(b1-4)GlcNAc(b1-4)GlcNAc
# In short: as §1
# [36] = target: Neu5Ac(a2-6)Gal(b1-4)GlcNAc(b1-2)Man(a1-3)[Gal(b1-4)GlcNAc(b1-2)Man(a1-6)]Man(b1-4)GlcNAc(b1-4)GlcNAc
# In short: as §1
# [37] = target: Neu5Ac(a2-6)Gal(b1-4)GlcNAc(b1-2)Man(a1-3)[GlcNAc(b1-2)Man(a1-6)]Man(b1-4)GlcNAc(b1-4)GlcNAc
# In short: as §1
binder,measurement,setting,value
B1,glycan array binding signal (z-score),[1],-0.178
same,glycan array binding signal (z-score),[2],0.284
same,glycan array binding signal (z-score),[3],-0.205
same,glycan array binding signal (z-score),[4],0.13
same,glycan array binding signal (z-score),[5],0.16
same,glycan array binding signal (z-score),[6],-0.159
same,glycan array binding signal (z-score),[7],-0.27
same,glycan array binding signal (z-score),[8],-0.309
same,glycan array binding signal (z-score),[9],-0.253
same,glycan array binding signal (z-score),[10],-0.321
same,glycan array binding signal (z-score),[11],-0.231
same,glycan array binding signal (z-score),[12],-0.122
same,glycan array binding signal (z-score),[13],-0.291
same,glycan array binding signal (z-score),[14],-0.299
same,glycan array binding signal (z-score),[15],-0.432
same,glycan array binding signal (z-score),[16],-0.252
same,glycan array binding signal (z-score),[17],-0.223
same,glycan array binding signal (z-score),[18],-0.171
same,glycan array binding signal (z-score),[19],-0.114
same,glycan array binding signal (z-score),[20],0.106
same,glycan array binding signal (z-score),[21],-0.172
same,glycan array binding signal (z-score),[22],-0.154
same,glycan array binding signal (z-score),[23],-0.383
same,glycan array binding signal (z-score),[24],-0.137
same,glycan array binding signal (z-score),[25],-0.278
same,glycan array binding signal (z-score),[26],-0.371
same,glycan array binding signal (z-score),[27],-0.33
same,glycan array binding signal (z-score),[28],-0.146
same,glycan array binding signal (z-score),[29],-0.352
same,glycan array binding signal (z-score),[30],-0.283
same,glycan array binding signal (z-score),[31],-0.313
same,glycan array binding signal (z-score),[32],-0.303
same,glycan array binding signal (z-score),[33],-0.153
same,glycan array binding signal (z-score),[34],-0.097
same,glycan array binding signal (z-score),[35],-0.164
same,glycan array binding signal (z-score),[36],-0.27
same,glycan array binding signal (z-score),[37],-0.33
